{
  "source": "patent EP4775226A1",
  "about": "“ANTIBODY DRUG CONJUGATE TARGETING GPC3 AND USE THEREOF” (priority 2023, dated 2025)",
  "key": {"[1]": {"system": "PDX model LIV#219 of nude mice with human liver cancer", "test": "In vivo anti-tumor activity, LIV#219 PDX model", "design": "species or system BALB/c nude mice", "conditions": "tail vein on Day 0 and Day 7, Day 29", "method": "The in vivo anti-tumor activity of GPC3-ADC was tested in the LIV#219 PDX model of mice with human liver cancer.\nThe process of the establishment of a LIV#219 PDX model of nude mice with human liver cancer (Genendesign Co., Ltd.) was as follows: A tumor tissue with a volume size of about 15-30 mm^3 was transplanted subcutaneously under the right rear back of the BALB/c nude mice. […] Six mice were included in each group."}, "[2]": {"system": "PDX model LI6653 of nude mice with human liver cancer", "conditions": "tail vein on Day 0 and Day 7, Day 16", "method": "The in vivo anti-tumor activities of Hu 52H5D3B8-8-MCC-AAN-Exa (ADC-2) and Hu 52H5D3B8-8-MCC-AAQ-Exa (ADC-4) were also tested in the LI6653 PDX model of mice with human liver cancer for comparison.\nThe process of the establishment of a PDX model of nude mice with human liver cancer was as follows: Tumor tissues were harvested from tumor-bearing mice in a model with a human-derived liver cancer xenograft, cut into tumor fragments with a diameter of 2-3 mm, and inoculated subcutaneously at the right anterior scapular region of BALB/c Nude mice. When the average tumor volume of the tumor-bearing mice reached about 170-200 mm^3, they were randomized and administrated according to tumor size, and the day when grouping was carried out was recorded as Day 0. Six mice were included in each group. Tumor volume uniformity and body weight balance between groups were ensured. There were a total of 6 groups, including vehicle group, Non-binding-MCC-AAN-Exa (DAR8) (10 mg/kg) control administration group, Hu 52H5D3B8-8-MCC-AAN-Exa (ADC-2, 10 and 3 mg/kg) administration groups, and Hu 52H5D3B8-8-MCC-AAQ-Exa (ADC-4, 10 and 3 mg/kg) administration groups. On Day 0 and Day 7, administration was carried out via the tail vein once, respectively.\nData analysis: The mice were measured twice a week for body weight and tumor volume during the experiment. The calculation formula for the tumor volume (TV) is: TV = l × w^2 / 2, in which l and w represent the measured length and width of the tumor, respectively. According to the measurement results, the relative tumor volume (RTV) was calculated by RTV = Vf / V0, in which V0 was the tumor volume measured at the time of grouping for administration (i.e., Day 0), and Vf was the tumor volume measured on the last day. Relative tumor proliferation rate (T/C) (%) = (RTV in drug administration group / RTV in vehicle group) × 100%. When T/C (%) ≤ 40% and P < 0.05, the test sample was believed to have a significant inhibitory effect on tumor growth."}, "[3]": {"system": "Huh7 cells", "conditions": "binding to Huh7 cells, FACS", "method": "Huh7 liver cancer cells growing in log phase were collected. After centrifugation, the cells were resuspended in FACS buffer (PBS + 3% FBS), the cell density was adjusted, and the cells were dispensed to a 96-well U-bottom cell culture plate, such that each well contained 200,000-500,000 cells. The antibody or ADC diluted with FACS buffer in a 4-fold gradient manner was added and uniformly mixed, such that the final starting concentration of each sample was finally 10 µg/mL. The 96-well plate was incubated at 4°C for 60 min. The cells in the wells were thoroughly washed with FACS buffer to remove unbound antibodies or ADCs. Goat anti-Human IgG (H+L) Cross-Adsorbed Secondary Antibody, Alexa Fluor™ 647 (Invitrogen, #A-21445), diluted with FACS buffer at 1 : 1,000 was added and incubated at 4°C in the dark for 30-60 min. The cells in the wells were thoroughly washed with FACS buffer to remove unbound secondary antibodies. The cell sample was analyzed for fluorescence signal by CytoFLEX flow cytometer (Beckman Coulter). […] Table 3: Binding of GPC3 antibody and each ADC to Huh7 cells (EC50)"}},
  "note": "Like-named read-outs stand apart in the source and are kept apart here.",
  "data": [
    {"molecule": "Hu 52H5D3B8-8-mcc-AAN-Exatecan (conjugate, antibody conjugate of Hu 52H5D3B8-8 antibody with mcc-AAN-Exatecan, DAR of 8.0) heavy: EVQLVQSGAEVKKPGASVKVSCKASGYTFTDYEMHWVRQAPGQGLEWMGAIHPGSGGTAYNQKFKGRVTMTADKSISTAYMELSRLRSDDTAVYYCTRFYSYAYWGQGTLVTVSS[not shown - human IgG1 constant region] light: DVVMTQTPLSLSVTPGQPASISCRSSQSLVHSNGNTYLQWYLQKPGQSPQLLIYKVSNRFSGVPDRFSGSGSGTDFTLKISRVEAEDVGVYFCSQSIHVPYTFGGGTKVEIKRTVAAPSVFIFPPSDEQLKSGTASVVCLLNNFYPREAKVQWKVDNALQSGNSQESVTEQDSKDSTYSLSSTLTLSKADYEKHKVYACEVTHQGLSSPVTKSFNRGEC", "values": [
      {"measurement": "relative tumor proliferation rate T/C (%)", "setting": "[1]; 3 mg/kg", "value": 77.71, "unit": "%"},
      {"measurement": "relative tumor proliferation rate T/C (%)", "setting": "[1]; 10 mg/kg", "value": 12.44, "unit": "%"},
      {"measurement": "relative tumor proliferation rate T/C (%)", "setting": "[2]; 3 mg/kg", "value": 31.81, "unit": "%"},
      {"measurement": "relative tumor proliferation rate T/C (%)", "setting": "[2]; 10 mg/kg", "value": 17.46, "unit": "%"},
      {"measurement": "EC50", "setting": "[3]", "value": 0.06097, "unit": "µg/mL"}
    ]},
    {"molecule": "Hu 52H5D3B8-8-mc-AAQ-Exatecan (conjugate, antibody conjugate of Hu 52H5D3B8-8 antibody with mc-AAQ-Exatecan, DAR of 8.0) heavy: EVQLVQSGAEVKKPGASVKVSCKASGYTFTDYEMHWVRQAPGQGLEWMGAIHPGSGGTAYNQKFKGRVTMTADKSISTAYMELSRLRSDDTAVYYCTRFYSYAYWGQGTLVTVSS[not shown - human IgG1 constant region] light: DVVMTQTPLSLSVTPGQPASISCRSSQSLVHSNGNTYLQWYLQKPGQSPQLLIYKVSNRFSGVPDRFSGSGSGTDFTLKISRVEAEDVGVYFCSQSIHVPYTFGGGTKVEIKRTVAAPSVFIFPPSDEQLKSGTASVVCLLNNFYPREAKVQWKVDNALQSGNSQESVTEQDSKDSTYSLSSTLTLSKADYEKHKVYACEVTHQGLSSPVTKSFNRGEC", "values": [
      {"measurement": "relative tumor proliferation rate T/C (%)", "setting": "[1]; 3 mg/kg", "value": 47.29, "unit": "%"},
      {"measurement": "relative tumor proliferation rate T/C (%)", "setting": "[1]; 10 mg/kg", "value": 6.75, "unit": "%"},
      {"measurement": "EC50", "setting": "[3]", "value": 0.06331, "unit": "µg/mL"}
    ]},
    {"molecule": "Hu 52H5D3B8-8-mcc-AAQ-Exatecan [ADC-4] (conjugate, antibody conjugate of Hu 52H5D3B8-8 antibody with mcc-AAQ-Exatecan, DAR of 8.0) heavy: EVQLVQSGAEVKKPGASVKVSCKASGYTFTDYEMHWVRQAPGQGLEWMGAIHPGSGGTAYNQKFKGRVTMTADKSISTAYMELSRLRSDDTAVYYCTRFYSYAYWGQGTLVTVSS[not shown - human IgG1 constant region] light: DVVMTQTPLSLSVTPGQPASISCRSSQSLVHSNGNTYLQWYLQKPGQSPQLLIYKVSNRFSGVPDRFSGSGSGTDFTLKISRVEAEDVGVYFCSQSIHVPYTFGGGTKVEIKRTVAAPSVFIFPPSDEQLKSGTASVVCLLNNFYPREAKVQWKVDNALQSGNSQESVTEQDSKDSTYSLSSTLTLSKADYEKHKVYACEVTHQGLSSPVTKSFNRGEC", "values": [
      {"measurement": "relative tumor proliferation rate T/C (%)", "setting": "[1]; 3 mg/kg", "value": 53.71, "unit": "%"},
      {"measurement": "relative tumor proliferation rate T/C (%)", "setting": "[1]; 10 mg/kg", "value": 7.37, "unit": "%"},
      {"measurement": "relative tumor proliferation rate T/C (%)", "setting": "[2]; 3 mg/kg", "value": 21.10, "unit": "%"},
      {"measurement": "relative tumor proliferation rate T/C (%)", "setting": "[2]; 10 mg/kg", "value": 13.05, "unit": "%"},
      {"measurement": "EC50", "setting": "[3]", "value": 0.06752, "unit": "µg/mL"}
    ]}
  ]
}
